We go through 45 compounds from PMC4336329 (PLoS ONE, 2015).

The campaign covered roughly 310,000 compounds. About 14,000 (4.5%) showed an effect of 50% or more. The effect is printed as a negative number. The list shows a part of the results.
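Note: peak tail current of the secondary pulse compared with the same well before compound.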

In the test the target is human ether-à-go-go-related gene (hERG) potassium channel (human, UniProt Q12809). The experiment in a line: primary screen, population patch clamp on CHO cells stably expressing hERG.
Chain of human ether-à-go-go-related gene (hERG) potassium channel (Q12809 whole entry, looked up): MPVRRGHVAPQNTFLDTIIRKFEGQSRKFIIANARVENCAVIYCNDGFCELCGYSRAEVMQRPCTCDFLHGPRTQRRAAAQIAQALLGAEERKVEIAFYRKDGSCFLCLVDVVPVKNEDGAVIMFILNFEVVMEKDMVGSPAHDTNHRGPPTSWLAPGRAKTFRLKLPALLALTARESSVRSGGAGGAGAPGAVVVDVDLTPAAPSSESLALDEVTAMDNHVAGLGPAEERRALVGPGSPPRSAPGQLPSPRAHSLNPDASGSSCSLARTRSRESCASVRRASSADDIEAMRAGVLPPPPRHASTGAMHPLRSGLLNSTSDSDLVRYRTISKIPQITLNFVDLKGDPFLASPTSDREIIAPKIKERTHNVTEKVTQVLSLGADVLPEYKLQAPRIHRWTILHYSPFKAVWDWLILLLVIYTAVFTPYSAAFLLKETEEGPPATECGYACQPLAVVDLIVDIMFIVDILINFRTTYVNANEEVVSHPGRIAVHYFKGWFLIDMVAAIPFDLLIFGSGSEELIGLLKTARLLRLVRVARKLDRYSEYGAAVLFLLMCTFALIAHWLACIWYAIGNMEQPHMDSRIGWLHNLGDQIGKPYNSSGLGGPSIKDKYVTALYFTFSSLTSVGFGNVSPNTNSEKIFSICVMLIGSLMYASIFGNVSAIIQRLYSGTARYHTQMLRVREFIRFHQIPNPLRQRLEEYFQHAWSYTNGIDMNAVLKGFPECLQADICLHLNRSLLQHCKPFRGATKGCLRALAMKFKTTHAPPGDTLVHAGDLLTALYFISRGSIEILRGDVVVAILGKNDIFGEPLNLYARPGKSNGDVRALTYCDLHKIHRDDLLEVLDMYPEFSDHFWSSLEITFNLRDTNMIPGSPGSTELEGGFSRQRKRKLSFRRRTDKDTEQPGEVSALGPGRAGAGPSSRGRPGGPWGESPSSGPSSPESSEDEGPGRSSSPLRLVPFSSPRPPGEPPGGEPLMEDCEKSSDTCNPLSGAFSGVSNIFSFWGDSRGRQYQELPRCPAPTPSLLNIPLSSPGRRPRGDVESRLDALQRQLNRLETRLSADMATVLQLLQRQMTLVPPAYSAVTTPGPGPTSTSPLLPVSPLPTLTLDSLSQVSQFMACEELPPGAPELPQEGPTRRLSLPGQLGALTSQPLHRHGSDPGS
For `COc1cccc(C(C#N)N2N=C(C)CC2(C)C)c1O` (stereo not drawn), the “hERG current change (%, negative = inhibition) at 10uM” value was 17.4%.

`COc1ccc(N(CC(=O)N2CCN(c3ccc(Cl)cc3)CC2)S(=O)(=O)c2c(C)n[nH]c2C)cc1`: the “hERG current change (%, negative = inhibition) at 10uM” value was -10.1%.

With `Cn1c(=O)c(C(=O)CSc2nncs2)c(N)n(Cc2ccccc2)c1=O`, the “hERG current change (%, negative = inhibition) at 10uM” value is 18%.

Regarding `COc1c(/C=N/Nc2nc(N3CCCCC3)nc(N3CCCCC3)n2)cccc1[N+](=O)[O-]`, the “hERG current change (%, negative = inhibition) at 10uM” value is on record as -6.19%.

On to `O=C(CCNS(=O)(=O)c1ccc2[nH]c(=O)oc2c1)NCc1ccc(F)cc1`, for which the “hERG current change (%, negative = inhibition) at 10uM” value is listed as 12.7%.

For the compound `CN1CC=C2C(C#N)=C(N)C(C#N)(C#N)C(c3ccsc3)C2C1` (stereo not drawn), the “hERG current change (%, negative = inhibition) at 10uM” value was -4.62%.

With `Cc1cccc(/N=C/C2=C(O)CC(C)(C)CC2=O)n1`, the “hERG current change (%, negative = inhibition) at 10uM” value worked out at 13.2%.

Turning to `CNC(=O)C1(C(F)(F)F)C/C(=C\CCO)CCCO1` (stereo not drawn), the “hERG current change (%, negative = inhibition) at 10uM” value is recorded as 8.94%.

With `CCCSc1nc(C)c(C(C)=O)cc1C#N`, the “hERG current change (%, negative = inhibition) at 10uM” value stood at 5.28%.

On to `O=C(NCCCc1ccccn1)C1CCC(=O)N(Cc2cccc(F)c2)C1` (stereo not drawn), for which the “hERG current change (%, negative = inhibition) at 10uM” value was 4.5%.

As to `Cc1cc(C=C2C(=O)N(C)C(=S)N(C)C2=O)c(C)n1C1CCCCC1`, the “hERG current change (%, negative = inhibition) at 10uM” value is 7.42%.

With `CCN1CCN(c2cc(C)c3cc(NC(=S)N4CCN(c5ccccc5F)CC4)ccc3n2)CC1`, the “hERG current change (%, negative = inhibition) at 10uM” value is -16.1%.

For `Cc1ccc(NC(=O)C2CCN(S(C)(=O)=O)CC2)c(C)c1`, the “hERG current change (%, negative = inhibition) at 10uM” value is on record as 13.8%.

Take `Cc1ccc(S(=O)(=O)NCCC(=O)N2CCCCCCC2)cc1C`: the “hERG current change (%, negative = inhibition) at 10uM” value is -30.9%.

With `Cc1cc(C)cc(NC(=O)CCC(=O)N2CCSc3ccccc32)c1`, the “hERG current change (%, negative = inhibition) at 10uM” value is reported as -0.364%.

In the case of `CC(=O)NCCc1c[nH]c2ccccc12`, the “hERG current change (%, negative = inhibition) at 10uM” value stood at 4.81%.

For the compound `Cc1nn(Cc2c(F)cccc2Cl)c(C)c1[N+](=O)[O-]`, the “hERG current change (%, negative = inhibition) at 10uM” value is on record as 9.63%.

Take `Cc1cc(N2CCN(c3ccccc3)CC2)nc(N)n1.Cl`: the “hERG current change (%, negative = inhibition) at 10uM” value is -42.9%.

Consider `CC(C)CNC(=S)N1CCC(C(=O)c2ccc(F)cc2)CC1`, for which the “hERG current change (%, negative = inhibition) at 10uM” value is given as -61.4%.

With `COc1cccc(-c2nn(-c3ccccc3)cc2C(=O)OCC(=O)Nc2ncc(Cl)cc2Cl)c1`, the “hERG current change (%, negative = inhibition) at 10uM” value is reported as -22.2%.

As for `CC1CC(C)CN(C(=O)CCn2c(=O)oc3ccccc32)C1` (stereo not drawn), the “hERG current change (%, negative = inhibition) at 10uM” value came to 15.9%.

In the case of `O=C(CNc1cccc(Cl)c1)c1ccc(Br)cc1`, the “hERG current change (%, negative = inhibition) at 10uM” value came to 19.6%.

Regarding `COc1ccccc1C(=O)NC(CCSC)C(=O)NCCCSc1ccccc1` (stereo not drawn), the “hERG current change (%, negative = inhibition) at 10uM” value is on record as -36.5%.

`Cc1ccc(S(=O)(=O)NCCC(=O)N2CCN(S(=O)(=O)c3ccccc3)CC2)cc1C`: the “hERG current change (%, negative = inhibition) at 10uM” value was -16.6%.

As to `COc1ccc(/C=N/NS(=O)(=O)c2ccccc2)cc1OC(=O)c1ccc(C)cc1`, the “hERG current change (%, negative = inhibition) at 10uM” value was found to be 10.7%.

For `O=C(O)c1nc(-c2ccccc2)n(-c2ccccc2)n1`, the “hERG current change (%, negative = inhibition) at 10uM” value was found to be 4.87%.

On to `CCCCOC(=O)Nc1cc(Cl)ccc1C`, for which the “hERG current change (%, negative = inhibition) at 10uM” value is on record as 1.24%.

Regarding `O=C(COC(=O)CNC(=O)c1ccc(Br)cc1)NCCC1=CCCCC1`, the “hERG current change (%, negative = inhibition) at 10uM” value is given as 24.7%.

With `O=C(N/N=C/c1ccc(OCC(=O)N2CCCCC2)cc1)c1ccccc1`, the “hERG current change (%, negative = inhibition) at 10uM” value is given as 19%.

For `COc1ccc(Cl)cc1N(C(=O)c1ccco1)C(C(=O)NC1CCCC1)c1cccnc1` (stereo not drawn), the “hERG current change (%, negative = inhibition) at 10uM” value was -6.43%.

As to `Cc1nc(-c2nc(-c3c(C(=O)NN)noc3C)cs2)cs1`, the “hERG current change (%, negative = inhibition) at 10uM” value is on record as 8.73%.

For the compound `Nn1c(Cc2cccc3ccccc23)nnc1SCC(=O)NC1CCS(=O)(=O)C1` (stereo not drawn), the “hERG current change (%, negative = inhibition) at 10uM” value came out at 14.5%.

On to `O=C(OCc1cc(=O)n2c(n1)sc1ccccc12)c1ccc(O)cc1`, for which the “hERG current change (%, negative = inhibition) at 10uM” value came to 19.6%.

For the compound `O=C1c2ccsc2SCCN1Cc1c(F)cccc1Cl`, the “hERG current change (%, negative = inhibition) at 10uM” value was -24.4%.

For `CN1CCN(CC(=O)Nc2nc3c(s2)CCCC3)CC1`, the “hERG current change (%, negative = inhibition) at 10uM” value came to 8.05%.

For `COc1ccc(N(CC(=O)NCCC2=CCCCC2)S(=O)(=O)c2ccccc2F)cc1`, the “hERG current change (%, negative = inhibition) at 10uM” value was -1%.

Turning to `Cc1ccc(C(CNS(=O)(=O)c2ccc(Cl)cc2)N2CCN(C)CC2)cc1` (stereo not drawn), the “hERG current change (%, negative = inhibition) at 10uM” value is recorded as -72.8%.

With `CCc1ccc(NC(=O)c2cnn3c(C(F)F)cc(C)nc23)cc1`, the “hERG current change (%, negative = inhibition) at 10uM” value is on record as -6.56%.

Regarding `COc1ccc(/C=C(\C#N)C(=O)OCC(=O)NCc2ccccc2Cl)cc1`, the “hERG current change (%, negative = inhibition) at 10uM” value is on record as 6.86%.

Take `CC(CNc1nc2ccccc2n2cnnc12)c1ccccc1` (stereo not drawn): the “hERG current change (%, negative = inhibition) at 10uM” value is reported as -8.79%.

Take `O=C(NCCOc1ccc(Cl)cc1)C1CC(=O)N(c2ccc(F)cc2)C1` (stereo not drawn): the “hERG current change (%, negative = inhibition) at 10uM” value is -69.4%.

Turning to `Cc1cccc(Cl)c1OCCCn1ccnc1.O=C(O)C(=O)O`, the “hERG current change (%, negative = inhibition) at 10uM” value amounted to 1.28%.

With `O=C(COC(=O)CNC(=O)c1sc2ccccc2c1Cl)Nc1c(Cl)cc(Cl)cc1Cl`, the “hERG current change (%, negative = inhibition) at 10uM” value is reported as 15.6%.

Take `CC[n+]1ccc(C)c2cc(SC(F)(F)F)ccc21.Cc1ccc(S(=O)(=O)[O-])cc1`: the “hERG current change (%, negative = inhibition) at 10uM” value is -7.26%.

Regarding `CC(C)(C)C1CCc2c(sc(NC(=O)c3cc(C4CC4)on3)c2C#N)C1` (stereo not drawn), the “hERG current change (%, negative = inhibition) at 10uM” value is 10.1%.
